# Laboratory results taken from the RNAGym collection of RNA variant scans (doi:10.7554/elife.90254).
# Read counts are not given, so values of variants with three or more changes are uncertain.
# B1: LINE1-mini (parent)
# chain: GGCAGAGCUCAACACAGCGUGGCAAAGUGGCUGUGGCUAGACUGCC
# Variants of: B1
# Experiment: self-cleavage, relative activity (ratio to wild type); higher = more cleavage; in vitro, sequencing; the parent is a self-cleaving ribozyme
row,Variant,self-cleavage
1,GGCAGAGCUCAAGACAGCGUGGCAAAGUCGCUGAGGCUAGACUGCC [C13G G29C U34A],0.11
2,GGCAGAGCUCAAUACGUGUUGGCAAAGUGACUGUGGCUAGACUGCC [C13U A16G G17U C18G G19U G30A],0.05
3,GGCAGAGCUCAAGACAGCGAGGCUAAGUGGCUGUGGCUAGACUGCC [C13G U20A A24U],0.06
4,GGCAGAGCUCAAGACAGCGCGCCAAAGUGGCUGUGGCUAGACUGCC [C13G U20C G22C],0.32
5,GGCAGAGCUCAAGACAGCGUGGCAAAGUGGCUGGCGCUAGACUGCA [C13G U34G G35C C46A],0.15
6,GGCAGAGCUCAAGACAGCGUGGCAAAGUGGCUAUAGUUAGAAUGCC [C13G G33A G35A C37U C42A],0.12
7,GGCAGAGCUCAAGACAGCGUGGCAAACUGGCUGUGGCUCGACUGCC [C13G G27C A39C],0.09
8,GGCAGAGCUCAAGACAGCGUGGCAAAUUGGCUGUGGCUAGACUACC [C13G G27U G44A],0.07
9,GGCAGAGCUCAAUACAGAGUGGCAAAGUGCCUGUGGCUAGACUGCC [C13U C18A G30C],0.02
10,GGCAGAGCUCAAGACAGCGUGGCAAAGUGGCCGUGGCUGGACUGCC [C13G U32C A39G],0.03
11,GGCAGAGCUCAAUACAGCGUGGCAUAGGGGCUAUGGCUAGACUGCC [C13U A25U U28G G33A],0.03
12,GGCAGAGCUCAAUAAAACGUGGCAAAGUGGCUGUGGCUAGUCUGCA [C13U C15A G17A A41U C46A],0.09
13,GGCAGAGCUCAAUACUGGGUGGCAAAAAGGCUGUGGCUAGACUGCC [C13U A16U C18G G27A U28A],0.2
14,GGCAGAGCUCAAGACAGCGUGGCAAAGUGCCUGUGGCUACACUGCU [C13G G30C G40C C46U],0.04
15,GGCAGAGCUCAAUACAGCGUGGCAACGUGGCUGUGUCUAGACUGCC [C13U A26C G36U],0.06
16,GGCAGAGCUCAAUACAGUGUGGCAAAGAGGCUGUGGCUAGACUGCA [C13U C18U U28A C46A],0.06
17,GGCAGAGCUCAAGACAGCGCGGCCAAGUAGCUGUGGCUAGACUGCC [C13G U20C A24C G29A],0.09
18,GGCAGAGCUCAAUACAGCGUGGCAAUGUGGCUGUGGCUAGCCUGCU [C13U A26U A41C C46U],0.02
19,GGCAGAGCUCAAUGCAGCGUGGCAAAGCGGCCGUGGCUAUUCUGCC [C13U A14G U28C U32C G40U A41U],0.07

row,Variant,self-cleavage
1,GGCAGAGCUCAAGACAGCGUGGCAAAGUGGCCGUGGCUAUAUUGAC [C13G U32C G40U C42U C45A],0.05
2,GGCAGAGCUCAAGACAGCGUAGCAAAGUGCCUGUGGCUAGAGUGCC [C13G G21A G30C C42G],0.04
3,GGCAGAGCUCAAGACAGCGUGGCAAAGUAGCUCUGGCUAGACUGCC [C13G G29A G33C],0.01
4,GGCAGAGCUCAAGACAGCGUGGCAAAGUGGCUGGGGCUUGUCUGCC [C13G U34G A39U A41U],0.01
5,GGCAGAGCUCAAUAGAGCGUGGCAAAGUGGCUGUGGCUCUACUGCC [C13U C15G A39C G40U],0.02
6,GGCAGAGCUCAAGACAGCGUGGCAAAGUGGCUGUUGAUAGACUGCC [C13G G35U C37A],0.07
7,GGCAGAGCUCAAGACAGCGUGGCAAAGUGGCUGUUGUUAGACUGCC [C13G G35U C37U],0.11
8,GGCAGAGCUCAAUACAGCGUGGCUAAGUGGCUGUGGAUAGACUGCC [C13U A24U C37A],0.02
9,GGCAGAGCUCAAUAGAGCGUGGCAUAGUUGCUGUGGCUAGACUGCC [C13U C15G A25U G29U],0.02
10,GGCAGAGCUCAAGACAGCGUGGCAAAGUGGCUGUGACUGGACUGCC [C13G G36A A39G],0.13
11,GGCAGAGCUCAAGACAGCGUGGCAAAAUGGCUAGGGCUAGACUGCC [C13G G27A G33A U34G],0.01
12,GGCAGAGCUCAAGACAUCGUGGCAAAGUGGCUGUGGCUAGACUGCA [C13G G17U C46A],0.03
13,GGCAGAGCUCAAUAUAGCGUGGCAAAGUGGUUGUGGCUAGACUGCC [C13U C15U C31U],0.04
14,GGCAGAGCUCAAUACAGCGUGGUAGAGAGGCUGUGGCUAGACUGCC [C13U C23U A25G U28A],0.19
15,GGCAGAGCUCAAUCCAGCGUGCCAAAUUGGCUGUGGCUAGAGUGCC [C13U A14C G22C G27U C42G],0.01
16,GGCAGAGCUCAAUCCAGCGUGGCAAAGUGGCCGUGGCUAGACUGCC [C13U A14C U32C],0
17,GGCAGAGCUCAAUACCGAGUGGCAAGGUGGCUGUGGCUAGACUGCC [C13U A16C C18A A26G],0.02
18,GGCAGAGCUCAAGACAGCAAGGCAAAGUGGAUGUGGCUAGACUUCC [C13G G19A U20A C31A G44U],0
19,GGCAGAGCUCAAGACAGCGUGGCAAAGUGCCUGUAGCUAGACUGCC [C13G G30C G35A],0.08

row,Variant,self-cleavage
1,GGCAGAGCUCAAGACAGCGUGACAACGUGGCUGUGGCUAGACUGCC [C13G G22A A26C],0.06
2,GGCAGAGCUCAAGACAGCGUUGCAAAGUUGCUGUGGCUAGACUGCC [C13G G21U G29U],0.24
3,GGCAGAGCUCAAUUCAGCGUGGCGAAGUGGCUGUGGCUAGACUGCC [C13U A14U A24G],0.23
4,GGCAGAGCUCAAGACAGCGUGGCAAAGACGAUGUGGCUAGACUGCC [C13G U28A G29C C31A],0.03
5,GGCAGAGCUCAAUUCAGGGUGGGAAAGUGGCUGUGGCUACACUUCC [C13U A14U C18G C23G G40C G44U],0.09
6,GGCAGAGCUCAAGACAGCUUGGCAAAGUGGCUGUGGCUAGACUACC [C13G G19U G44A],0.21
7,GGCAGAGCUCAAUACAGUGUUGCAGACUGGCUGUGGCUAGACUGCC [C13U C18U G21U A25G G27C],0.02
8,GGCAGAGCUCAAUACAGCGUGGCAAAGUGGCUGUGGCUAGUCUGCG [C13U A41U C46G],0.1
9,GGCAGAGCUCAAGACAGCGGGGGAAAGUGGCUGUGGCUAGACUGCC [C13G U20G C23G],0.01
10,GGCAGAGCUCAAGACAGCGUGUGAAAGUGGCUGUGGCUAGACUGCC [C13G G22U C23G],0.24
11,GGCAGAGCUCAAUACAGCGUGGCUCAGUGGCUGUGGCUAGACUGAC [C13U A24U A25C C45A],0.08
12,GGCAGAGCUCAAGACAGCGUGGCAAAGUGCUUGUGGCUAGACUGCC [C13G G30C C31U],0.03
13,GGCAGAGCUCAAUACAGCGUGGCAAAGUGGCUGUGGCUCGUCUGCC [C13U A39C A41U],0.14
14,GGCAGAGCUCAAGACAGCGUGGCAAAGAGGCUGGGGCUAGACUGCC [C13G U28A U34G],0.11
15,GGCAGAGCUCAAGACAGCGUGGCAAAGUUGAGGUGGCUAGACUGCA [C13G G29U C31A U32G C46A],0.06
16,GGCAGAGCUCAAGACAGCGAGGCAAAGUGGCUUUGGCUAGACUGCU [C13G U20A G33U C46U],0.02
17,GGCAGAGCUCAAUCCAGCGUGGCAAAGUGGCGGUGGCUUGACUGCC [C13U A14C U32G A39U],0.01
18,GGCAGAGCUCAAUACAGCGUGGCACCGUGGCUGUGGCUAGACUGCU [C13U A25C A26C C46U],0.07
